Data as given in publication PMC6386420.
Substitutions are numbered along the chain they refer to. These are yes or no findings as the source states them, for the method shown. Binding seen in cells or lysates may run through a third protein. Some binding calls cover weakened binding; strength is not graded here. Where a sequence is shown, tags or fusion partners need not be part of it. Blank lines part the entries; values can stand above or below the binder they belong to.

What was measured:
FLAG-C-MDA5 = target: T1, FLAG-C-MDA5 (UniProt Q9BYX4); test: co-IP; Huh7 cells co-transfected with FLAG-N-MDA5 or FLAG-C-MDA5 and myc-tagged 14-3-3 isoforms; anti-FLAG immunoprecipitation of lysates, immunoblot
T1 sequence: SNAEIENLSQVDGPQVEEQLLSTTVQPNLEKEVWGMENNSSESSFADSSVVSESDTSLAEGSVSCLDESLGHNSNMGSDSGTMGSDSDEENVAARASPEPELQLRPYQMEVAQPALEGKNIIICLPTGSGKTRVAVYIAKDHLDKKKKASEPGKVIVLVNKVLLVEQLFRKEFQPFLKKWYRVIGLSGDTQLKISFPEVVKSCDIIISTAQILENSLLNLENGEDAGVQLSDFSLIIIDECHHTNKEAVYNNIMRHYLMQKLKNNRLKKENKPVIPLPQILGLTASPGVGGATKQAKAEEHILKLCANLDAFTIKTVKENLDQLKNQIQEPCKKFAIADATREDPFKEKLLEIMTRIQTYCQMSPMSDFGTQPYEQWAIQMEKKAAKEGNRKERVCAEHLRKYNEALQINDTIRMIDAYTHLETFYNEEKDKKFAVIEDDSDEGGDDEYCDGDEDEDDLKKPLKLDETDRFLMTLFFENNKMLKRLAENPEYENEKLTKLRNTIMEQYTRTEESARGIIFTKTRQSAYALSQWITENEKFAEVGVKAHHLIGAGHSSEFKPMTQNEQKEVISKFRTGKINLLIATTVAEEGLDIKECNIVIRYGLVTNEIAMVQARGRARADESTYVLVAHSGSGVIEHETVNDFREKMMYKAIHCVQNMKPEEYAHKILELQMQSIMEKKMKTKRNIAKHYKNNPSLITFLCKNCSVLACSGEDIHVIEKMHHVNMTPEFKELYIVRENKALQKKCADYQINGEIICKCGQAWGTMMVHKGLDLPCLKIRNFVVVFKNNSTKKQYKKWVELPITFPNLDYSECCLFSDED

FLAG-N-MDA5 [1] = target: T2, FLAG-N-MDA5 (UniProt Q9BYX4); test: as above
T2 sequence: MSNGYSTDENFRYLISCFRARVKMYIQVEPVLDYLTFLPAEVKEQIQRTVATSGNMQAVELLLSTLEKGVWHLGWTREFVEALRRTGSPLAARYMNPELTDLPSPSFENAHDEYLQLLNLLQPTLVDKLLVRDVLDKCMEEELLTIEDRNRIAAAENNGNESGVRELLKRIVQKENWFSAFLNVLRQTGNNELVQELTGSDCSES

[2] = target: T3, FLAG-tagged full-length MDA5 (UniProt Q9BYX4); test: co-IP; Huh7 cells co-transfected with FLAG-tagged full-length MDA5 and myc-tagged 14-3-3 isoforms, mock or 1 μg/mL poly(I:C) for 6 h; anti-FLAG immunoprecipitation of lysates (RIPA buffer), immunoblot for myc
T3 sequence: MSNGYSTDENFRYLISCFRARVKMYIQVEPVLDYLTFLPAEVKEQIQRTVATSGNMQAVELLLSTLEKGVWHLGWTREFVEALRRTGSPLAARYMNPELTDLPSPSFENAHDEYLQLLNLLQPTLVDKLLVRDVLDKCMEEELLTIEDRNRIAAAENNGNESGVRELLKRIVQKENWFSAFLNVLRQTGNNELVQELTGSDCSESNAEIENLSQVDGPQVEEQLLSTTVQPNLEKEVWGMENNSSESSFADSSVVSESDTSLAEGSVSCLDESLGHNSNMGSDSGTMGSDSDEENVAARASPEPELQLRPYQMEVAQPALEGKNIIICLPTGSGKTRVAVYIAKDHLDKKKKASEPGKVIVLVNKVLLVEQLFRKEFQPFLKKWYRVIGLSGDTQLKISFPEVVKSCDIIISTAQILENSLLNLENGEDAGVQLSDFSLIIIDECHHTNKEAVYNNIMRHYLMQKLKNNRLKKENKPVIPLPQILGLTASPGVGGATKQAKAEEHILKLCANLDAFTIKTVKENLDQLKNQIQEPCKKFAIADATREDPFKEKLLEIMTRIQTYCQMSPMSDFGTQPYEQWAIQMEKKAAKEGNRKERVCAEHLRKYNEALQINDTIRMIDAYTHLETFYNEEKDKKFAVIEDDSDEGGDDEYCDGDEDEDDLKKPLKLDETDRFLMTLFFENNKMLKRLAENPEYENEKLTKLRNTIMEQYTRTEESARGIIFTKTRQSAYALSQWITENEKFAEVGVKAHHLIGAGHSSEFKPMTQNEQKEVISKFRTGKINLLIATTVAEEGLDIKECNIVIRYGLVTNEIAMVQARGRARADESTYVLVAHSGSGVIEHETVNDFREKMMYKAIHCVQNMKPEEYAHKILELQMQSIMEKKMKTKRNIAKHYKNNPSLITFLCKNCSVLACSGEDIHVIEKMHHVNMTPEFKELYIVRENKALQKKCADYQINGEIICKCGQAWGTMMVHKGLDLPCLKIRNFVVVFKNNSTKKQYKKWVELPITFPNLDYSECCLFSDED

FLAG-N-MDA5 [3] = target: T2, FLAG-N-MDA5; test: co-IP; HEK293 cells co-transfected with FLAG-MDA5-FL or FLAG-N-MDA5 (WT, S88A, S88D) and myc-tagged 14-3-3η; lysates immunoprecipitated with anti-FLAG beads, immunoblot
FLAG-N-MDA5 S88A = target: T4, FLAG-N-MDA5 S88A (UniProt Q9BYX4); test: as above
T4 sequence: T2 sequence with S88A

[4] = target: T3, FLAG-tagged full-length MDA5; test: as above

- binding (FLAG-C-MDA5): no binding
- binding (FLAG-N-MDA5 [1]): binds
- binding [2]: binds
B1: myc-tagged 14-3-3γ (protein, UniProt P61981 1-247)
chain: MVDREQLVQKARLAEQAERYDDMAAAMKNVTELNEPLSNEERNLLSVAYKNVVGARRSSWRVISSIEQKTSADGNEKKIEMVRAYREKIEKELEAVCQDVLSLLDNYLIKNCSETQYESKVFYLKMKGDYYRYLAEVATGEKRATVVESSEKAYSEAHEISKEHMQPTHPIRLGLALNYSVFYYEIQNAPEQACHLAKTAFDDAIAELDTLNEDSYKDSTLIMQLLRDNLTLWTSDQQDDDGGEGNN

- binding (FLAG-C-MDA5): no binding
- binding (FLAG-N-MDA5 [1]): binds
- binding (FLAG-N-MDA5 [3]): binds
- binding (FLAG-N-MDA5 S88A): binds
- binding [4]: binds
- binding [2]: binds
B2: myc-tagged 14-3-3η (protein, UniProt Q04917 1-246)
chain: MGDREQLLQRARLAEQAERYDDMASAMKAVTELNEPLSNEDRNLLSVAYKNVVGARRSSWRVISSIEQKTMADGNEKKLEKVKAYREKIEKELETVCNDVLSLLDKFLIKNCNDFQYESKVFYLKMKGDYYRYLAEVASGEKKNSVVEASEAAYKEAFEISKEQMQPTHPIRLGLALNFSVFYYEIQNAPEQACLLAKQAFDDAIAELDTLNEDSYKDSTLIMQLLRDNLTLWTSDQQDEEAGEGN

- binding (FLAG-C-MDA5): no binding
- binding (FLAG-N-MDA5 [1]): binds
- binding [2]: binds
B3: myc-tagged 14-3-3θ (protein, UniProt P27348 1-245)
chain: MEKTELIQKAKLAEQAERYDDMATCMKAVTEQGAELSNEERNLLSVAYKNVVGGRRSAWRVISSIEQKTDTSDKKLQLIKDYREKVESELRSICTTVLELLDKYLIANATNPESKVFYLKMKGDYFRYLAEVACGDDRKQTIDNSQGAYQEAFDISKKEMQPTHPIRLGLALNFSVFYYEILNNPELACTLAKTAFDEAIAELDTLNEDSYKDSTLIMQLLRDNLTLWTSDSAGEECDAAEGAEN
